{
  "source": "PubChem BioAssay AID686978",
  "about": "(National Center for Advancing Translational Sciences (NCATS), 2013)",
  "note": "The campaign covered roughly 420,000 compounds. About 64,000 (15%) were called active. The shares of active, inactive and inconclusive entries below differ from those in the screen. The call rests on the fitted dose curve; in most records, active means well fitted inhibition curve with a large enough effect; inconclusive means small, poorly fitted or top-dose-only effect; inactive means flat fitted curve, though single readings scatter. Potencies of inconclusive entries are left out as doubtful fits. On the % scale 0 is the no-effect control and ±100 the full control effect; potency means the concentration at half of the fitted maximal effect; tags describe the fitted curve by direction and shape.",
  "data": [
    {"assay": "qHTS for Inhibitors of human tyrosyl-DNA phosphodiesterase 1 (TDP1): qHTS in cells in absence of CPT; further: nearly all actives have a fitted effect of over 55% in size", "conditions": "DT40 Tdp1-/- hTDP1 cells, no CPT, ATP luminescence, 48 h; activity change, negative = growth inhibition: at 46.2 µM (top of the series) unless noted", "outline": "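DT40 Tdp1-/-;hTDP1 cells, no CPT (DMSO vehicle only), 400 cells/well; compounds pin-transferred; ≥48 hr, 37 °C; CellTiter-Glo 30 min RT dark, luminescence read.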", "values": [
      {"smiles": "CC1Cc2ccccc2N1C(=O)Cn1nnc(-c2ccccc2NC(=O)C2CCC2)n1", "note": "(stereo unspecified)", "Potency": "active: 14.6 µM"},
      {"smiles": "O=S(=O)(c1ccc2c(c1)CCCC2)N1CCN(c2nc(-c3cccs3)nc3ccccc23)CC1", "Potency": "inconclusive [inhibitor, single point]"},
      {"smiles": "COc1ccccc1CNC(=O)c1ccc(SC)cc1OC", "Potency": "active: 15.8 µM"},
      {"smiles": "O=C(CSc1n[nH]c(-c2ccccc2F)n1)Nc1cc(F)ccc1F", "Potency": "inconclusive [inhibitor, single point]"},
      {"smiles": "COC(=O)c1ccc(N=NN2CCCCCC2)cc1", "activity change, negative = growth inhibition": "inactive: 2.05%"},
      {"smiles": "CN1C(=O)[C@@](O)(c2cn(C)c3ccccc23)c2cc(Br)ccc21", "Potency": "inconclusive [inhibitor, single point]"},
      {"smiles": "COc1ccc(N2CCN(C(=O)c3nc(SC)ncc3Cl)CC2)cc1", "Potency": "inconclusive [inhibitor, single point]"},
      {"smiles": "COc1cc(C(=O)Sc2ccc(Cl)cc2)cc(OC)c1OC", "Potency": "active: 11.6 µM"},
      {"smiles": "CC1CCCC(NC(=O)COC(=O)c2ccccc2C(=O)N(C)C2CCCCC2)C1C", "note": "(stereo unspecified)", "Potency": "active: 14.6 µM"},
      {"smiles": "COc1ccc(Nc2nc(N)c([N+](=O)[O-])c(N3CCCC3)n2)cc1", "Potency": "inconclusive [inhibitor, single point]"},
      {"smiles": "O=C(NCc1ccc2c(c1)OCO2)C(=O)NCC1OCCN1S(=O)(=O)c1ccc(Br)cc1", "note": "(stereo unspecified)", "Potency": "inconclusive [inhibitor, partial curve]"},
      {"smiles": "N#Cc1ccc(Oc2ccc(S(=O)(=O)N3CCCC3)cn2)cc1", "Potency": "inconclusive [inhibitor, partial curve]"},
      {"smiles": "COC(=O)c1cc2c(ccn2-c2ccc(F)cc2)n1CC(=O)C(C)(C)C", "Potency": "inconclusive [inhibitor, single point]"},
      {"smiles": "O=C(OCc1ccccc1)c1ccc(NCc2cc(O)ccc2O)cc1", "Potency": "active: 3.66 µM"},
      {"smiles": "CCn1c(SCC(=O)N2CCCCCC2)nc2c([nH]c3ccccc32)c1=O", "activity change, negative = growth inhibition": "inactive: -10.8%"},
      {"smiles": "CCOc1ccccc1-c1c2cc(O)c(=O)cc-2oc2cc(O)c(O)cc12", "Potency": "inconclusive [inhibitor, single point]"},
      {"smiles": "Cc1cccc(C)c1NC(=O)COC(=O)c1ccc2c(c1)OCO2", "Potency": "inconclusive [inhibitor, single point]"},
      {"smiles": "CCOC(=O)C(=O)Nc1sc(C(=O)N(CC)CC)c(C)c1C#N", "activity change, negative = growth inhibition": "inactive: -8.32%"},
      {"smiles": "CCOc1ccc2nc(NC(=O)C3(C)CC3(Br)Br)sc2c1", "note": "(stereo unspecified)", "Potency": "active: 23.1 µM"},
      {"smiles": "CCc1nc2sccc2c(=O)[nH]1", "activity change, negative = growth inhibition": "inactive: -1.62%"},
      {"smiles": "CCn1c(SCC(=O)NC(=O)NC(C)(C)C)nc2ccccc21", "Potency": "inconclusive [inhibitor, single point]"}
    ]}
  ]
}
